Experimental data reported in PubChem BioAssay AID624417 (National Center for Advancing Translational Sciences (NCATS), 2012).
Out of some 410,000 compounds screened, about 6,400 (1.6%) were called active. The shares of active, inactive and inconclusive entries below differ from those in the screen. The call rests on the fitted dose curve; in most records, active means well fitted inhibition curve with a large enough effect; inconclusive means small, poorly fitted or top-dose-only effect; inactive means no such curve, though single readings can be large or run the other way. Potencies of inconclusive entries are left out as doubtful fits.

Molecular target: Glucagon-like peptide 1 receptor (Homo sapiens) (UniProt P43220)
UniProt P43220, sequence (P43220 whole entry, looked up): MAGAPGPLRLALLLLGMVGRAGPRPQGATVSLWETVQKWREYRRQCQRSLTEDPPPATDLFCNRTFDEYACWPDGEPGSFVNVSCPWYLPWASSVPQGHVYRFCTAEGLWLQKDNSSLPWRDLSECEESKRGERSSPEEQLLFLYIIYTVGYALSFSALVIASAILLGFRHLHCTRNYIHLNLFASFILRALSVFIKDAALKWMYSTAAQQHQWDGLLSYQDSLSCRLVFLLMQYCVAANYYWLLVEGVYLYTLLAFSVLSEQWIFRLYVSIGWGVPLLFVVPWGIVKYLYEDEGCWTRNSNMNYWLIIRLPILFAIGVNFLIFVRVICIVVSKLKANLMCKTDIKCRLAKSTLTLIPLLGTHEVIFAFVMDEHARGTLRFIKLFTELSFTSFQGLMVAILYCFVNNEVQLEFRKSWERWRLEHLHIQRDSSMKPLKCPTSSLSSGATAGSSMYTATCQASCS
Test: qHTS of GLP-1 Receptor Inverse Agonists (Inhibition Mode); further: nearly all actives have a fitted effect of over 55% in size
Conditions: HEK293 GLP-1R CRE-luciferase, luminescence, 24 h, GLP-1R form is constitutively active; series mostly up to 38.3 µM
How it was run: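 HEK293 cells stably co-expressing constitutively active GLP-1R and a cAMP-responsive luciferase reporter were seeded in DMEM with 10% Nu serum, given compounds after 12 h, and incubated 24 h at 37 deg C. Luminescence was then read.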
Potency means the concentration at half of the fitted maximal effect; tags describe the fitted curve by direction and shape.

| Compound | Potency |
| --- | --- |
| Cc1cc(Nc2nc(Cl)c(Cl)cc2Cl)n(-c2ccccc2)n1 | inconclusive [inhibitor, single point] |
| CC/C(CC(=O)C(F)(F)F)=N\NC(=O)/C(C#N)=C/N(C)C | inactive |
| CCN(CC)S(=O)(=O)c1cc(OC)c(Cl)cc1Cl | inconclusive [inhibitor, single point] |
| CC(C)(C)c1ccc(OCC(=O)NNC(=S)NC(=O)c2ccccc2[N+](=O)[O-])c(Br)c1 | inconclusive [inhibitor, single point] |
| O=C(/C=C/c1ccccc1)Nc1cccc(C(=O)NCCCc2ccccc2)c1 | inconclusive [inhibitor, single point] |
| CC(=O)c1c(-c2ccc(C)cc2)nc2c3ccccc3ccn12 | inconclusive [inhibitor, partial curve, poor fit] |
| C[C@H](O)C#Cc1ccc2c(c1)O[C@@H](CN(C)Cc1ccc(-c3ccccc3)cc1)[C@H](C)CN([C@@H](C)CO)S2(=O)=O | inconclusive [inhibitor, single point] |
| O=S(=O)(c1ccc2c(c1)OCCO2)N1CCN(c2cccc(Cl)c2)CC1 | inconclusive [inhibitor, single point] |
| O=C(NCc1ccccc1)C(c1ccccc1)n1c(=O)c(-c2cc3ccccc3[nH]2)nc2ccccc21 (stereo not drawn) | inconclusive [inhibitor, single point] |
| Cc1sc(NC(=O)c2ccco2)nc1-c1ccc2c(c1)CC(C)N2C(=O)C1CC1 (stereo not drawn) | inactive |
| Cn1c(CC(=O)Nc2ccccc2F)nnc1SCC(=O)Nc1ccccc1Br | inactive |
| Cc1nn(-c2ccccc2)c2nc(-c3ccncc3)cc(C(=O)NCc3ccco3)c12 | inconclusive [inhibitor, partial curve, poor fit] |
| COC(=O)c1cccc(NC(=O)NC23CC4CC(CC(C4)C2)C3)c1 | inconclusive [inhibitor, partial curve, poor fit] |
| COC(=O)c1ccccc1NC(=O)CSc1nc(Nc2ccccc2)nc(N2CCOCC2)n1 | inconclusive [inhibitor, single point] |
| O=C(CN1C(=O)c2cccnc2Oc2ccc(Cl)cc21)NCCc1ccccc1 | inconclusive [inhibitor, single point] |
| CCN(CC)CCCNc1ccc(-c2nnc(-c3ccc(OCC(C)C)cc3)o2)cn1 | inconclusive [inhibitor, full curve, poor fit] |
| Cc1ccc(Cl)cc1NC(=S)N1CCC(c2ccccc2)C1 (stereo not drawn) | inconclusive [inhibitor, single point] |
| C/C(=N\NC1=NCCN1)c1ccc(Cl)cc1 | inconclusive [inhibitor, single point] |
| COc1cccc(-c2nnc(SC(C(=O)c3c[nH]c4ccccc34)c3ccccc3)n2C)c1 (stereo not drawn) | inconclusive [inhibitor, single point] |
| Cc1ccc(NC(=O)CN2C(=O)COc3ccc(S(=O)(=O)NC4CCCC4)cc32)cc1Cl | inconclusive [inhibitor, single point] |
| O=C(Cn1ncc(Cl)c(Cl)c1=O)N1CCN(S(=O)(=O)c2ccc3ccccc3c2)CC1 | inconclusive [inhibitor, full curve, poor fit] |

| Compound | Potency |
| --- | --- |
| Cc1ccc(CCN2C(Nc3ccccc3)=NC[C@@H]2C)cc1 | inactive |
| COc1ccc(-c2cc(C3CCN(CC(O)C(F)(F)F)CC3)[nH]n2)cc1 (stereo not drawn) | inactive |
| Cc1ccc2nc(C)cc(C(=O)N3CCCC(CO)(Cc4ccccc4C)C3)c2c1 (stereo not drawn) | inconclusive [inhibitor, single point] |
| Cc1ccc(OC(C)C(=O)Nc2cccc(S(=O)(=O)N3CCCCCC3)c2)cc1 (stereo not drawn) | inconclusive [inhibitor, single point] |
| Cc1cccc(N2C(=O)N3[C@@H]4c5ccccc5OC[C@@H]4[C@@H](c4ccccc4)[C@@]3(C)C2=O)c1 | inconclusive [inhibitor, single point] |
| C=CCc1ccccc1OCc1nc2ccccc2n1CC | inconclusive [inhibitor, single point] |
| O=C(NC1CCN(Cc2ccccc2)CC1)c1ccccc1OCc1ccccc1 | inconclusive [inhibitor, single point] |
| COC(=O)N/N=C/c1cc(Cl)c(OCc2ccc(F)cc2)c(OC)c1 | inactive |
| CCOC(=O)C1CCN(C(=O)Cn2ncc3c4ccccc4n(Cc4ccc(F)cc4)c3c2=O)CC1 | inconclusive [inhibitor, partial curve, poor fit] |
| Cc1ccc(S(=O)(=O)c2nc(S(=O)(=O)c3ccccc3)sc2N2CCN(C)CC2)cc1 | inconclusive [inhibitor, partial curve, poor fit] |
| O=C(CN1C(=O)NC2(CCCC2)C1=O)Nc1cc(Cl)ccc1N1CCOCC1 | inactive |
| COC(=O)c1cc(=O)nc2sc(-c3cccs3)nn12 | inactive |
| CSC1=NN(c2ccccc2)CN(c2ccccc2)N1C | inconclusive [inhibitor, partial curve, poor fit] |
| Cc1ncc(C[n+]2csc(CCOC(=O)CC34CC5CC(CC(C5)C3)C4)c2C)c(N)n1 | inactive |
| O=C(/C=C/c1ccc(S(=O)(=O)N2CCOCC2)cc1)NC(=S)NCCCn1ccnc1 | inconclusive [inhibitor, single point] |
| CCOC(=O)/C=C/C(=O)OCC(=O)N1CCN(C(=O)c2ccco2)CC1 | inactive |
| CN(c1ccccc1)c1nc(N)c([N+](=O)[O-])c(N2CCCCCC2)n1 | inconclusive [inhibitor, single point] |
| O=C(NC1CCSc2ccccc21)c1ccc(Cl)c(S(=O)(=O)N2CCOCC2)c1 (stereo not drawn) | inconclusive [inhibitor, single point] |
| COC(=O)[C@]12CCCCC=C1N(Cc1ccccc1)C(=O)[C@H](CC(=O)N1CCC(c3ccccc3)CC1)C2 | inconclusive [inhibitor, full curve, poor fit] |
| O=C(Cn1c(=O)n(Cc2ccco2)c(=O)c2c3c(sc21)CCCC3)Nc1ccccc1 | inconclusive [inhibitor, single point] |
| CCOc1cc(S(=O)(=O)N2CCCCC2)ccc1Cl | inconclusive [inhibitor, partial curve, poor fit] |

| Compound | Potency |
| --- | --- |
| CCCCC[C@@H]1C=C(C(=O)O)[C@H](c2ccc(C)cc2)N1S(=O)(=O)c1ccc(C)cc1 | inconclusive [inhibitor, single point] |
| CC(C)CC1Nc2ncnc(N3CCCCC3)c2N(Cc2ccccc2)C1=O (stereo not drawn) | inconclusive [inhibitor, single point] |
| O=C(Nc1ccccc1OC(=O)c1ccccc1)c1ccccc1 | inconclusive [inhibitor, single point] |
| COc1ccc(S(=O)(=O)NC2CC(=O)N(c3ccc(C)c(C)c3)C2)cc1 (stereo not drawn) | inconclusive [inhibitor, single point] |
| Cc1ccc(N(CC(O)CN2CCCC2)S(=O)(=O)c2ccc(C)cc2)cc1 (stereo not drawn) | inconclusive [inhibitor, partial curve, poor fit] |
| O=c1c2cc(NC(=S)NC3CCCC3)ccc2nc2n1CCCCC2 | inconclusive [inhibitor, single point] |
| CCC1(c2ccccc2)ON(c2c(Br)cccc2Br)C1=O (stereo not drawn) | inconclusive [inhibitor, partial curve, poor fit] |
| CCc1cc(OCCOCCN(C)C)ccc1Cl | inconclusive [inhibitor, partial curve, poor fit] |
| O=C(C1CCCCC1)N1C[C@@H](n2cc(-c3ccc(F)cc3)nn2)[C@H](O)C[C@@H]1c1ccccc1 | inconclusive [inhibitor, single point] |
| CC[C@@H]1CCCCc2ccccc2[C@H](C(=O)C[C@@H](O)CC(C)=O)OC1=O | inconclusive [inhibitor, partial curve, poor fit] |
| Cc1cc(C)cc(NC(=O)c2cc(S(=O)(=O)N3CCC(C)CC3)cn2C)c1 | inactive |
| S=C(c1ccc(OCc2ccccc2)cc1)N1CCCC1 | inconclusive [inhibitor, single point] |
| CCOc1ccc(-n2c(=S)sc3c(=O)n(-c4ccc(F)cc4)c(SCC(=O)O)nc32)cc1 | inactive |
| CC(=O)/C(C#N)=C1\NC(=O)C(Cc2ccc(C)c(Cl)c2)S1 (stereo not drawn) | inconclusive [inhibitor, full curve, poor fit] |
| CCCCNc1nc(Oc2ccc(=O)n(C)n2)nc(N2CCOCC2)n1 | inactive |
| O=C(Nc1ccc(N2CCOCC2)c(S(=O)(=O)Nc2ccccc2Cl)c1)c1ccc(F)cc1 | active: 10 µM |
| Cc1ccccc1OCCCC(=O)NC1CCCCC1 | inconclusive [inhibitor, single point] |
| O=C1Nc2ccc(Cl)cc2/C1=C/C1CC=CCC1 (stereo not drawn) | inconclusive [inhibitor, partial curve, poor fit] |
| O=C1NC(=O)c2cc(NC(=O)C3CCCCC3)ccc21 | inactive |
| CCN1CCN(c2nc3sc4c(c3c3ncnn23)CC(C)CC4)CC1 (stereo not drawn) | inconclusive [inhibitor, partial curve, poor fit] |
| COc1ccc(C(CCN2CCCC(C)C2)c2c(OC)cc(OC)c3c(-c4ccccc4)cc(=O)oc23)cc1 (stereo not drawn) | inconclusive [inhibitor, single point] |
